Assay results published in PubChem BioAssay AID686970 (National Center for Advancing Translational Sciences (NCATS), 2013).
The whole screen tested about 360,000 compounds, of which about 6,000 (1.7%) were called active. Inconclusive results, whose numbers are uncertain, are shown with a selection of clear calls. Calls come from the whole dose curve; as a rule, active = well fitted cell-killing curve with a large enough effect; inconclusive = small, poorly fitted or top-dose-only effect, or effect the other way; inactive = flat fitted curve, though single readings scatter. No potency is given beside an inconclusive call; the fits are too rough.

Experiment: qHTS for induction of synthetic lethality in tumor cells producing 2HG: qHTS for the HT-1080-NT fibrosarcoma cell line;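 note: NT is the 2HG producing partner of a matched IDH1 knockdown line; nearly all actives have a fitted effect of over 55% in size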;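 for activity, negative = less viability: 0% = DMSO-treated cells and -100% = media-only wells without cells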
Conditions: HT-1080-NT fibrosarcoma viability, CellTiter-Glo ATP luminescence, 48 h; activity, negative = less viability: at 46.1 µM (top of the series) unless noted
Method in brief: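 Fibrosarcoma NT cells, 750 per well in 5% FBS RPMI, were exposed to compound for 48 hours. Viability: CellTiter-Glo luminescence.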
Potency is the fitted concentration of half-maximal effect; tags give direction and shape of the fitted curve.

Compound | Potency | activity, negative = less viability
CC(C)C1C(=O)N(Cc2cn(CCC3OCCO3)nn2)CCS(=O)(=O)N1Cc1ccc(-c2ccccc2C(F)(F)F)cc1 (centres undefined) | inconclusive [cytotoxic, single point] | 
CCCc1ccc(C(C)NC(=S)NCc2ccc(F)cc2)cc1 (centres undefined) | inconclusive [cytotoxic, single point] | 
COc1ccccc1N(CC(=O)N/N=C(\C)c1ccccc1O)S(=O)(=O)c1ccc(C)cc1 | inconclusive [cytotoxic, partial curve, poor fit] | 
C=C1C(=O)C23C(O)C1CCC2C12CCCC(C)(COC(C)=O)C1C(O)C3(O)OC2 (centres undefined) | active: 8.2 µM | 
C/C(=N\Nc1nc2ccccc2[nH]1)c1cc2ccccc2o1 | inconclusive [cytotoxic, single point] | 
O=C(Nc1ccc(F)cc1)C(c1ccncc1)N1CCN(c2cccc(C(F)(F)F)n2)CC1 (centres undefined) | inconclusive [cytotoxic, single point] | 
COc1ccc2[nH]c3c(NCCC4=CCCCC4)ncnc3c2c1 | active: 29.1 µM | 
CCSc1nnc(NC(=O)NC(CC)(C(F)(F)F)C(F)(F)F)s1 | active: 18.4 µM | 
CCCCC(=O)Nc1ccc2c(c1)nc1n2CCSC1 | inconclusive [rising, partial curve] | 
O=C(NC(=S)Nc1ccc(CN2CCOCC2)cc1)c1ccc(-c2cccc(Cl)c2)o1 | inconclusive [cytotoxic, single point] | 
N#Cc1c(-c2ccc(Cl)cc2)n(O)c2ccccc12 | active: 10.3 µM | 
O=c1oc2ccccc2c(O)c1/C=C1\C=Nc2ccccc21 | inconclusive [cytotoxic, single point] | 
CCOc1ccc(NC(=O)C2CCCN(S(=O)(=O)c3ccc4[nH]c(=O)ccc4c3)C2)cc1 (centres undefined) |  | inactive: -4.33%
CCCCC(=O)NC(=S)NNC(=O)c1ccc(OC)cc1 |  | inconclusive: -34.4% [cytotoxic]
C[C@@H](c1ccccc1)N1C[C@@H](COCc2ccccc2)Oc2cc(N3CCC[C@H]3C(N)=O)ccc2S1(=O)=O | inconclusive [cytotoxic, single point] | 
COC(=O)N1C/C=C\C(c2ccc(OC)cc2)N(Cc2ccc(F)cc2)C(=O)C1 (centres undefined) |  | inactive: -2.23%
CC(=O)NNC(=O)c1[nH]c2ccc(Br)cc2c1-c1ccccc1 | inconclusive [cytotoxic, partial curve] | 
COc1ccc2cc(CN(CC3CCCO3)C(=S)Nc3ccccc3)c(=O)[nH]c2c1 (centres undefined) | active: 25.9 µM | 
N#C/C(=C\c1c(F)cccc1Cl)S(=O)(=O)c1ccccn1 |  | inactive: 18.3%
CC(C)C[C@H](NC(=O)C1CC(=O)N(c2ccc3c(c2)OCO3)C1)C(=O)NC1CCCCC1 (some centres undefined) |  | inactive: 21.2%
O=C(CN1CCN(c2cccc(Cl)c2)CC1)c1ccc(O)cc1O |  | inactive: -8.02%
COc1ccccc1CC(Cc1nc2ccccc2[nH]1)c1nc2ccccc2[nH]1 (centres undefined) |  | inactive: -5.02%
CCOc1cc2c3c(c1)C1(C(=O)N3C(C)(C)C=C2C)C(C#N)=C(N)Oc2cc(O)ccc21 (centres undefined) | inconclusive [cytotoxic, single point] | 

Compound | Potency | activity, negative = less viability
CN(C)c1ccc(C2(c3ccc(N(C)C)cc3)OC(=O)c3cc(N)ccc32)cc1 | inconclusive [cytotoxic, single point] | 
Cc1ccc(S(=O)(=O)CCC(=O)c2cccc([N+](=O)[O-])c2)cc1 | inconclusive [cytotoxic, single point] | 
CCCCCCSc1ccc([C@H]2N[C@@](C)(C(=O)OC)[C@H]3C(=O)N(C)C(=O)[C@@H]23)cc1 |  | inactive: -18.3%
CC(=O)c1cccc(-c2cnc3c(NC=O)cc(-c4ccc(C(=O)N5CCOCC5)cc4)cn23)c1 | inconclusive [cytotoxic, single point] | 
COc1cc([N+](=O)[O-])ccc1NC(=O)COC(=O)c1ccc(NC(N)=O)cc1 | inconclusive [rising, single point] | 
O=C(NCC(c1cccs1)N1CCOCC1)c1ccc(Cl)cc1 (centres undefined) | inconclusive [cytotoxic, single point] | 
COc1ccc(NC(=O)C(Cl)=C(Cl)Cl)cn1 | active: 16.4 µM | 
CCOC(=O)CNCCC(=O)c1ccc(Br)cc1 |  | inactive: -1.94%
Cn1nc(C2CC2)cc1NC(=O)C1(C)CCN1C(=O)c1ccccc1CCc1ccccc1 (centres undefined) |  | inconclusive: 19.9%
CC1(C)CCN2CCC(C)(C)c3c(O)ccc1c32 | inconclusive [cytotoxic, partial curve] | 
O=C(NCc1nnnn1-c1ccc(F)cc1)c1ccc([N+](=O)[O-])o1 | inconclusive [cytotoxic, single point] | 
O=C(N/N=C/c1cc(Br)ccc1O)Nc1ccccc1 | inconclusive [cytotoxic, single point] | 
COc1ccc2cc(-c3cc(C(=O)OCC(=O)NC4CCS(=O)(=O)C4)c4ccccc4n3)ccc2c1 (centres undefined) | inconclusive [cytotoxic, single point] | 
COc1cc2nc(N3CCCCC3)nc(NC3CCN(Cc4ccccc4)CC3)c2cc1OC | active: 14.1 µM | 
Oc1ccccc1CNc1ccc(Br)cn1 | active: 10.3 µM | 
Cn1c(SCc2cccc([N+](=O)[O-])c2)nc2ccccc2c1=O | inconclusive [cytotoxic, single point] | 
Cc1ccccc1OCC(=O)Nc1ccc2[nH]ncc2c1 |  | inactive: 24%
CCCCn1c(-c2cc(Cl)ccc2OC)n[nH]c1=S | inconclusive [cytotoxic, single point] | 
Cc1ccccc1NCC(=O)N/N=C\c1ccc([N+](=O)[O-])s1 | inconclusive [cytotoxic, single point] | 
CC(C)(C)c1cc(CN2CCCC(O)C2)c(O)c(C(C)(C)C)c1 (centres undefined) | inconclusive [cytotoxic, single point] | 
CC1(Cc2c(Cl)cccc2Cl)C(=O)Nc2cc(-c3ccccc3Cl)ccc21 (centres undefined) |  | inconclusive: -46.9%
N#CC1c2ccccc2C=CN1C(=O)c1ccccc1 (centres undefined) | inconclusive [cytotoxic, single point] | 
COc1ccc(-c2cc(NC=O)c3ncc(-c4ccc(OC)c(OC)c4)n3c2)cc1 | active: 1.03 µM | 

Compound | Potency | activity, negative = less viability
CC1CCCC(C)N1C(=O)CNCc1ccc2c(c1)OCO2 (centres undefined) |  | inactive: -0.84%
CC(=O)Nc1cc(-c2cccc(NS(C)(=O)=O)c2)cn2c(-c3cccc(C(F)(F)F)c3)cnc12 | inconclusive [cytotoxic, single point] | 
CCOC(=O)c1sc2nc(C)nc(SC(C)C(=O)NC3CC3)c2c1C (centres undefined) | inconclusive [rising, partial curve] | 
Cc1ccc(-c2nn3c(C)nnc3s2)cc1NC(=O)c1ccc(-c2ccc(Cl)cc2Cl)o1 | inconclusive [cytotoxic, single point] | 
COc1cc2cc(-c3ccc(OC)c(OC)c3C)nc(N)c2cc1OC | active: 8.2 µM | 
COc1cc(C(=O)N/N=C(\Cc2ncc[nH]2)c2ccccc2)cc(OC)c1OC | active: 9.2 µM | 
Cc1ccc(-c2nnc(N3CCC(C)CC3)c3ccccc23)cc1C | inconclusive [cytotoxic, single point] | 
COc1ccc(-c2ccc(C(=O)NCC3CC3)c3occc23)c(C)c1 | inconclusive [cytotoxic, single point] | 
COc1cccc(N2CCN(CC(=O)c3c[nH]c4ccc(OC)cc34)CC2C)c1 (centres undefined) |  | inconclusive: -30.4% [cytotoxic]
COc1ccc(CC(=O)NNC(=O)c2ccc(SCc3cc(F)ccc3F)c([N+](=O)[O-])c2)cc1 | inconclusive [cytotoxic, single point] | 
COc1ccccc1OCCCOc1cccc(/C=C2\SC(=O)NC2=O)c1 | inconclusive [cytotoxic, partial curve] | 
O=[N+]([O-])c1cc(Br)c(O)c(/C=N/Nc2nc3ccccc3s2)c1 | inconclusive [cytotoxic, partial curve] | 
NS(=O)(=O)c1ccc(N/N=C/c2cn(-c3ccccc3)nc2-c2cccs2)cc1 | active: 23.1 µM | 
COc1cccc2sc(N(CCN(C)C)C(=O)/C=C/c3cccs3)nc12 |  | inactive: -15.5%
O=c1c2ccccc2sn1-c1ccc(F)cc1 | inconclusive [cytotoxic, single point] | 
CC(C)Nc1ncnc2c1ncn2[C@H]1CN(Cc2ccc(-c3ccccc3)cc2)C[C@@H](CO)O1 | inconclusive [cytotoxic, partial curve] | 
O=C(N/N=C/c1cc(Br)c(Br)o1)c1cccnc1 | inconclusive [cytotoxic, single point] | 
CCCCCc1ccc(C(=O)CCC(=O)OCC(=O)N(CC)c2c(N)n(Cc3ccccc3)c(=O)[nH]c2=O)cc1 | inconclusive [cytotoxic, single point] | 
CC1CCN(c2ccc(NC(=O)c3ccc([N+](=O)[O-])o3)cc2)CC1 | active: 16.4 µM | 
CCC(C)(C)NC(=O)C(c1ccc(OC)cc1)N(C(=O)CCC(=O)Nc1cc(C)on1)c1ccc2c(c1)OCCO2 (centres undefined) | inconclusive [cytotoxic, single point] | 
COc1cccc(NC(=O)N2CCCC2C(=O)Nc2cc(C)ccc2OC)c1 (centres undefined) |  | inactive: 4.53%
CCOc1ccc(CNC(=O)CCc2cn(C)c3ccccc23)cc1 |  | inactive: 19.4%
O=[N+]([O-])c1ccc(Oc2cccnc2)c([N+](=O)[O-])c1 | inconclusive [cytotoxic, partial curve] | 
